B1: ADI-20051, IgG1 format (antibody)
heavy: QVQLQQWGAGLLKPSETLSLTCAVYGGSFSGYYWSWIRQPPGKGLEWIGEIDHSGSTNYNPSLKSRVTISVDTSKNQFSLKLSSVTAADTAVYYCARDGGGGYASPFDYWGQGTLVTVSS[human IgG1 constant region cut from this listing]
light: EIVMTQSPATLSVSPGERATLSCRASQSVSSNLAWYQQKPGQAPRLLIYGASTRATGIPARFSGSGSGTEFTLTISSLQSEDFAVYYCQQYHAWPPTFGGGTKVEIKRTVAAPSVFIFPPSDEQLKSGTASVVCLLNNFYPREAKVQWKVDNALQSGNSQESVTEQDSKDSTYSLSSTLTLSKADYEKHKVYACEVTHQGLSSPVTKSFNRGEC
notes: Made in yeast or 293HEK cells, depending on the assay
B2: ADI-20112, IgG1 format (antibody)
heavy: QVQLVESGGGVVQPGRSLRLSCAASGFTFSSYGMHWVRQAPGKGLEWVAVISYDGSNKYYADSVKGRFTISRDNSKNTLYLQMNSLRAEDTAVYYCARGRPWYSETGTSAFDIWGQGTMVTVSS[human IgG1 constant region cut from this listing]
light: DIQMTQSPSSLSASVGDRVTITCQASQDISNYLNWYQQKPGKAPKLLIYDASNLETGVPSRFSGSGSGTDFTFTISSLQPEDIATYYCQQSDHYPTFGGGTKVEIKRTVAAPSVFIFPPSDEQLKSGTASVVCLLNNFYPREAKVQWKVDNALQSGNSQESVTEQDSKDSTYSLSSTLTLSKADYEKHKVYACEVTHQGLSSPVTKSFNRGEC
notes: Made in yeast, 293HEK or CHO cells, depending on the assay; also called ADI-20112-g1
B3: ADI-20118, IgG1 format (antibody)
heavy: QVQLVQSGAEVKKPGASVKVSCKASGYTFTSYAISWVRQAPGQGLEWMGWISAYNGNTNYAQKLQGRVTMTTDTSTSTAYMELRSLRSDDTAVYYCARSGGGSGPNWFDPWGQGTLVTVSS[human IgG1 constant region cut from this listing]
light: DIQMTQSPSSLSASVGDRVTITCQASQDISNYLNWYQQKPGKAPKLLIYDASNLETGVPSRFSGSGSGTDFTFTISSLQPEDIATYYCQQPATLPWTFGGGTKVEIKRTVAAPSVFIFPPSDEQLKSGTASVVCLLNNFYPREAKVQWKVDNALQSGNSQESVTEQDSKDSTYSLSSTLTLSKADYEKHKVYACEVTHQGLSSPVTKSFNRGEC
notes: as for B1

Tests used:
[1] = target: T1, human OX40 on cells (CHO-hOX40, 293HEK-hOX40, Jurkat-hOX40, activated primary CD4+ T cells) (human, UniProt P43489 29-277); test: flow cytometry, CHO-hOX40, 0.048828125 nM
T1 construct: whole, on cells; The cell type is told in each assay; also called CHO-OX40
T1 sequence (looked up): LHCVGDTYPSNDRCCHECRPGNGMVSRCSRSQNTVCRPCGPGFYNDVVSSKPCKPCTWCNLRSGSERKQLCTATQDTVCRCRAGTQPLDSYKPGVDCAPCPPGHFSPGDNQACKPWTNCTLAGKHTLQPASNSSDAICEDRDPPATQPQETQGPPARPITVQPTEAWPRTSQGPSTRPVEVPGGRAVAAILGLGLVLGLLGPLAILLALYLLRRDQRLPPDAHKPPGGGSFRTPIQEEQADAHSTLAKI

[2] = target: T1, human OX40 on cells (CHO-hOX40, …); test: flow cytometry, CHO-hOX40, 50 nM
[3] = target: T1, human OX40 on cells (CHO-hOX40, …); test: flow cytometry, activated CD4+ T cells, donor 2, 100 nM
[4] = target: T1, human OX40 on cells (CHO-hOX40, …); test: cell-based or functional assay
[5] = target: T1, human OX40 on cells (CHO-hOX40, …); test: flow cytometry, 293HEK-hOX40, 200 nM
[6] = target: T1, human OX40 on cells (CHO-hOX40, …); test: flow cytometry, CHO-hOX40, 0.09765625 nM
[7] = target: T2, cyno OX40_Fc (Acro Biosystems) (cyno); test: BLI, IgG1 on tip, cyno OX40-Fc 100 nM, avid
T2 construct: Bought

[8] = target: T1, human OX40 on cells (CHO-hOX40, …); test: flow cytometry, CHO-hOX40, 0.1953125 nM
[9] = target: T1, human OX40 on cells (CHO-hOX40, …); test: flow cytometry, CHO-hOX40, 6.25 nM
[10] = target: T1, human OX40 on cells (CHO-hOX40, …); test: flow cytometry, CHO-hOX40, IgG1 made in 293HEK
[11] = target: T1, human OX40 on cells (CHO-hOX40, …); test: flow cytometry, CHO-hOX40, 100 nM
[12] = target: T1, human OX40 on cells (CHO-hOX40, …); test: flow cytometry, 293HEK-hOX40, 8 nM
[13] = target: T1, human OX40 on cells (CHO-hOX40, …); test: flow cytometry, CHO-hOX40, 100 nM blocker, competitor OX40L-hFc-fluorescein
[14] = target: T1, human OX40 on cells (CHO-hOX40, …); test: flow cytometry, CHO-hOX40, 12.5 nM
[15] = target: T1, human OX40 on cells (CHO-hOX40, …); test: flow cytometry, CHO-hOX40, 25 nM
[16] = target: T1, human OX40 on cells (CHO-hOX40, …); test: flow cytometry, CHO-hOX40, 200 nM
[17] = target: T1, human OX40 on cells (CHO-hOX40, …); test: flow cytometry, CHO-hOX40, 3.125 nM
[18] = target: T1, human OX40 on cells (CHO-hOX40, …); test: flow cytometry, CHO-hOX40, 0.390625 nM
[19] = target: T1, human OX40 on cells (CHO-hOX40, …); test: flow cytometry, 293HEK-hOX40, 1.6 nM
[20] = target: T1, human OX40 on cells (CHO-hOX40, …); test: flow cytometry, CHO-hOX40, 1.5625 nM
[21] = target: T1, human OX40 on cells (CHO-hOX40, …); test: flow cytometry, activated CD4+ T cells, donor 1, 100 nM

Binder	MFI [1] [MFI]	MFI [2] [MFI]	MFI [3] [MFI]	NFkB-Luc fold change in Jurkat stimulated by PHA+ anti-CD28 [4] [fold over IgG4 control]	NFkB-Luc fold change in Jurkat stimulated by anti-CD3+ anti-CD28 [4] [fold over IgG4 control]	MFI [5] [MFI]	MFI [6] [MFI]	Kd [7] [nM]	MFI [8] [MFI]	MFI [9] [MFI]	EC50 [10] [nM]	MFI [11] [MFI]	MFI [12] [MFI]	MFI of OX40L signal on CHO-OX40 cells [13] [MFI]	MFI [14] [MFI]	MFI [15] [MFI]	MFI [16] [MFI]	MFI [17] [MFI]	MFI [18] [MFI]	MFI [19] [MFI]	also measured
B1	63900	3.8e+06	172000	1.83	1.29	2.47e+06	125000	11.8	294000	3.06e+06	2.73	4.35e+06	2.33e+06	17200	3.52e+06	3.89e+06	3.89e+06	2.82e+06	494000	788000	MFI [20]: 977000 MFI; MFI [21]: 141000 MFI
B2	56300	4.04e+06	125000	4.19	3.97	2.31e+06	80600	5.98	226000	2.64e+06	2.8	3.82e+06	1.98e+06	22500	3.64e+06	3.86e+06	3.97e+06	1.98e+06	303000	895000	MFI [20]: 1.54e+06 MFI; MFI [21]: 100000 MFI
B3	42700	3.35e+06	107000	3.99	5.27	1.73e+06	75500	11.4	132000	1.91e+06	6.71	3.83e+06	1.96e+06	26600	2.43e+06	3.4e+06	3.89e+06	1.42e+06	192000	849000	MFI [20]: 834000 MFI; MFI [21]: 78600 MFI

Reference: patent US20200140562A1 (Innovent, published 2020)
